# Data: publication PMC4336329 (PLoS ONE, 2015)
# Screen size: about 310,000 compounds; about 14,000 (4.5%) showed an effect of 50% or more. The effect is printed as a negative number. Some of the results follow.
# Target: human ether-à-go-go-related gene (hERG) potassium channel (human, UniProt Q12809)
# Test: primary screen, population patch clamp on CHO cells stably expressing hERG
# 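Also: peak tail current of the secondary pulse compared with the same well before compound.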
# Sequence of human ether-à-go-go-related gene (hERG) potassium channel (Q12809 whole entry, looked up): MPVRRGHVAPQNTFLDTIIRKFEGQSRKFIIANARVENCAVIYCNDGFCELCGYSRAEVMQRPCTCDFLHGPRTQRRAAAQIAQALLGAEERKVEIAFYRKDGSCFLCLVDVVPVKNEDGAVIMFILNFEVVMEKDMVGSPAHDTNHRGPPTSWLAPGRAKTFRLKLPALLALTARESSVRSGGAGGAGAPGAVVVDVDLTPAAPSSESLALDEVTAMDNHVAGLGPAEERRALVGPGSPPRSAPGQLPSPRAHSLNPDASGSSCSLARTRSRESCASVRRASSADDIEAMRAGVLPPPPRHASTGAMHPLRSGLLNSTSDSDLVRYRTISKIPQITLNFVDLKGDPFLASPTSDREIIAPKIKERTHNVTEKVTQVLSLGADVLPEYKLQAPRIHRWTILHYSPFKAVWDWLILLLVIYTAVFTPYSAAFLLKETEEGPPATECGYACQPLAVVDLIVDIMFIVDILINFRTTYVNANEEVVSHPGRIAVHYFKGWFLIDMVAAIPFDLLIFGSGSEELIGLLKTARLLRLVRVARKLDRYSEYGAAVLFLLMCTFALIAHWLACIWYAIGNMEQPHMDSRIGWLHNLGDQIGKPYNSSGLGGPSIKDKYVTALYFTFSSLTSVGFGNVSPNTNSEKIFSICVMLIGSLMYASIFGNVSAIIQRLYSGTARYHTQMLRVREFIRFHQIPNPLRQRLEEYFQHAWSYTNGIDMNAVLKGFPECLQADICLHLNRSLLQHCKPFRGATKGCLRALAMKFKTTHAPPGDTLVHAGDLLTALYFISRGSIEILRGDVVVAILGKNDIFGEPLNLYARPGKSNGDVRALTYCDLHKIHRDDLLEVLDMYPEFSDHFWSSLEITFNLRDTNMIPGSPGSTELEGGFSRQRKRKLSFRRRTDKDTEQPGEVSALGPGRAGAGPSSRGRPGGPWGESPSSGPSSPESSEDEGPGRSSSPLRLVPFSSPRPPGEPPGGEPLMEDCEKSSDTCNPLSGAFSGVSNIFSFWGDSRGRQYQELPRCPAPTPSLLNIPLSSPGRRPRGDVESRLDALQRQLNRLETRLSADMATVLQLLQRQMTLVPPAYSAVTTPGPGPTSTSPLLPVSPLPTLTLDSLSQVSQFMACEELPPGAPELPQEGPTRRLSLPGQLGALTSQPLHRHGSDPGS
row,Structure (SMILES),"hERG current change (%, negative = inhibition) at 10uM"
1,Cc1ccccc1CN1CCNC(=O)C1CC(=O)O (centres unmarked),3.55%
2,CN(c1ccc(C(=O)Nc2ccccc2C(=O)N2CCCC2)cc1)S(C)(=O)=O,12.9%
3,Clc1ccccc1N=C1SCCS1,8.83%
4,CC1CN(C(=O)c2cnn3c(C(F)F)cc(-c4ccccc4)nc23)CC(C)O1 (centres unmarked),-17.3%
5,O=c1c2ccccc2nc(/C=C/c2cc(Br)ccc2O)n1CCO,4.85%
6,CC1CCN(S(=O)(=O)c2cnc(Cl)c(Br)c2)CC1,6.4%
7,Cc1cc(C)nc(SCC(=O)n2c3c(c4ccccc42)CCCC3)n1,17%
8,Cc1csc(N(C(=O)CCNC(=O)c2ccc([N+](=O)[O-])cc2)c2ccccc2)n1,-45.2%
9,Br.COc1ccc(C(=O)CN(Cc2ccccc2)C2=NCCS2)cc1,-35.6%
10,COC(=O)c1ccccc1CON1C(=O)C(C)(C)N(OCc2ccccc2C(=O)OC)C(=O)C1(C)C,-8.86%
11,NC(=O)CC(NC(=O)Cc1ccc(Br)cc1)c1ccc(NCCc2ccccc2F)c([N+](=O)[O-])c1 (centres unmarked),-0.447%
12,O=c1[nH]c2cc3c(cc2cc1CN(Cc1ccc2c(c1)OCO2)Cc1nnnn1CC1CCCO1)OCO3 (centres unmarked),3.61%
13,O=C(CN1CCCC1)Nc1ccc(NC(=O)Nc2ccccc2Cl)cc1,-21.5%
14,C=CCn1c(O)c(C(CC)=NCCN2CCN(C(=S)NC)CC2)c(=O)[nH]c1=O,0.681%
15,Cc1ccc(C(OCC(O)CNCc2ccc(F)cc2)c2ccccc2)cc1.O=C(O)C(=O)O (centres unmarked),-75.7%
16,O=C(Nc1ccc(F)c(F)c1)c1ccccc1,7.11%
17,CCOC(=O)C(NC(=O)CC)(Nc1ccc(S(=O)(=O)Nc2ncccn2)cc1)C(F)(F)F (centres unmarked),22.5%
18,Cn1cccc1C1C=C(c2ccc(C(C)(C)C)cc2)Nc2ncnn21 (centres unmarked),-2.52%
19,Cc1ccc(NC(=O)C(C)OC(=O)c2n[nH]c3ccccc23)cc1 (centres unmarked),-31.9%
20,Clc1ccc(/C=N/c2c(-c3ccco3)nc3ccccn23)cc1,13%
21,COc1cc(-c2c(-c3ccc4c(c3)OCO4)noc2C)ccc1F,3.58%
22,CC1CN(C(=O)c2cccc(S(=O)(=O)Nc3cc(Cl)ccc3Cl)c2)CC(C)O1 (centres unmarked),-0.988%
23,Cc1c(=O)n(OCc2ccccc2)c2ccccc2[n+]1[O-],-10.2%
